Source: PMC10310049
These are yes or no findings as the source states them, for the method shown. For part of these data: Binding seen in cells or lysates may run through a third protein. Some binding calls cover weakened binding; strength is not graded here.

Amino acid sequences for entries named in this document (tags omitted). A change or cut given only in a name is not applied to a line headed by its entry.
UniProt P19474: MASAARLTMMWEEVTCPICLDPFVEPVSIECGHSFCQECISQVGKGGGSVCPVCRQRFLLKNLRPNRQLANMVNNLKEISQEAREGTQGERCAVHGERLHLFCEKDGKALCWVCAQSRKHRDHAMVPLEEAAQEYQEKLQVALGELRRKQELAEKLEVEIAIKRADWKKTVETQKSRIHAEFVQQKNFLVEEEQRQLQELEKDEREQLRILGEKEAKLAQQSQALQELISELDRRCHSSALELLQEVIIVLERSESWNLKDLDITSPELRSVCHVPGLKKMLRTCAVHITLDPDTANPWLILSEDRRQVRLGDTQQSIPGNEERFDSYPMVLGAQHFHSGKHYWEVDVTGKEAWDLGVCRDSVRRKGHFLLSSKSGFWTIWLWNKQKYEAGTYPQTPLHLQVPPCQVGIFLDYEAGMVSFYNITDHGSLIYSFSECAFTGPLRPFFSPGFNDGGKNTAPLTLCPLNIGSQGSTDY
UniProt P19525: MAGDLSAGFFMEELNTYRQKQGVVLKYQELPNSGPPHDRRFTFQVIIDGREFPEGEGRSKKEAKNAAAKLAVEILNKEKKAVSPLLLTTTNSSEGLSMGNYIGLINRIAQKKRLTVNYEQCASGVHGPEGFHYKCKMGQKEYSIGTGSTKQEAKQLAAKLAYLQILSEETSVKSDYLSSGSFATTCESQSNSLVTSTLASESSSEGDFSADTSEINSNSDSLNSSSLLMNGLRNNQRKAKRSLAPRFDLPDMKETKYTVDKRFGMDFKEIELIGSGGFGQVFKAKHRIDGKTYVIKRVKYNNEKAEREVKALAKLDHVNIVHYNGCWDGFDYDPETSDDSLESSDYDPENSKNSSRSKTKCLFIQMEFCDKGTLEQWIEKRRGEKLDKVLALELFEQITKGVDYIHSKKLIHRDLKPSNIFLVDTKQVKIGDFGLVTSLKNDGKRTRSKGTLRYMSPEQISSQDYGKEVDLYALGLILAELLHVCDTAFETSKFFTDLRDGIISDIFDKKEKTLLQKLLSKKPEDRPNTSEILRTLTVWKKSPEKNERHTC
UniProt P62136: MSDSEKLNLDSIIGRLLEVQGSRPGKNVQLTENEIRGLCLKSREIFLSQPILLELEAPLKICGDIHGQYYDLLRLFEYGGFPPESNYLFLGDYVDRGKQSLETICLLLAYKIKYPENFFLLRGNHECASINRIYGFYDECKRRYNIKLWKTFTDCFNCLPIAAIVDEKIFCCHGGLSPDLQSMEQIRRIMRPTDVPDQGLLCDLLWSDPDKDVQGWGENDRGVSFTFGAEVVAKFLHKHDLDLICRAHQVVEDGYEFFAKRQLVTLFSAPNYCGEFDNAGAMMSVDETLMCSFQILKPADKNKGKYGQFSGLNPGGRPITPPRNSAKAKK
UniProt P05198: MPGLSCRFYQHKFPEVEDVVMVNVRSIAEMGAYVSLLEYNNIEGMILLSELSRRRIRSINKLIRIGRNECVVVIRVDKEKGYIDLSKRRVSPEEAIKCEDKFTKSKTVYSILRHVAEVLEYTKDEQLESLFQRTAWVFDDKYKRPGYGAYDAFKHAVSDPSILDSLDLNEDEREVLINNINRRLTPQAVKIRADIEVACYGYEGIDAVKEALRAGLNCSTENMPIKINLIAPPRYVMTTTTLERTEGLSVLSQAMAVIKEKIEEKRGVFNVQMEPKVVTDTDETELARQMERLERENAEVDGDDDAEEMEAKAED

What was measured:
[1] = target: GST-TRIM21 protein purified from bacteria (human (cDNA from HLCZ01 cells)) (UniProt P19474); assay: pull-down; both purified
[2] = target: PKR (protein kinase R), endogenous in A549 cells (human (endogenous in A549)) (UniProt P19525); assay: co-IP
[3] = target: Flag-tagged PKR (protein kinase R, dsRNA-dependent protein kinase), from p3xFlag-CMV-PKR (human (cDNA from HLCZ01 cells)) (UniProt P19525); assay: co-IP; HEK293T cells co-transfected with tagged constructs for 48 h; IP Lysis Buffer; immunoprecipitation with anti-Flag antibody and Protein G Agarose; blots with anti-V5 or anti-Myc
[4] = target: Flag-tagged TRIM21, from p3xFlag-CMV-TRIM21 (human (cDNA from HLCZ01 cells)) (UniProt P19474); assay: as above
[5] = target: TRIM21, endogenous in A549 cells (human (endogenous in A549)) (UniProt P19474); assay: co-IP

Flag-PP1α protein purified from bacteria (from UniProt P62136 1-330)
binding [1]: binds

Flag-PP1α-K60R, from lentivirus, in PP1α-silenced A549 cells (from UniProt P62136 1-330)
binding [2]: no binding

Flag-PP1α-WT, from lentivirus, in PP1α-silenced A549 cells (from UniProt P62136 1-330)
binding [2]: binds

Myc-tagged PP1α (serine/threonine protein phosphatase type 1 alpha), from pCMV-N-Myc-PP1α (from UniProt P62136 1-330)
binding [3]: binds
binding [4]: binds

PKR (protein kinase R), endogenous in A549 cells (from UniProt P19525 1-551)
binding [5]: binds

PP1α, endogenous in A549 cells (from UniProt P62136 1-330)
binding [5]: binds

V5-tagged TRIM21, from pcDNA3.1a-TRIM21 (from UniProt P19474 1-475)
binding [3]: binds

V5-tagged eIF2α (α-subunit of eukaryotic translation initiation factor 2), from pcDNA3.1a-eIF2α (from UniProt P05198 1-315)
binding [4]: no binding
